Several values for one entry are separate records, joined by “and”; a condition that tells them apart may be missing. Equal values may be shown once. Out of some 420,000 compounds screened, about 50,000 (12%) were called active. This list was built around the results that the source calls inconclusive (neither active nor inactive); the mix of calls is not that of the screen. Calls follow the shape of the dose curve; as a rule, active = well fitted inhibition curve with a large enough effect; inconclusive = small, poorly fitted or top-dose-only effect; inactive = flat fitted curve, though single readings scatter. Potencies beside an inconclusive call are fits to weak or partial responses and may not hold up.
Experiment: qHTS for Inhibitors of human tyrosyl-DNA phosphodiesterase 1 (TDP1): qHTS in cells in presence of CPT; also: nearly all actives have a fitted effect of over 55% in size
Details: chicken DT40 Tdp1-/-;hTDP1 cells + 20 nM CPT, ATP luminescence, 48 h; activity change, negative = growth inhibition: at 46.2 µM (top of the series) unless noted
In short: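 Chicken DT40 Tdp1-/- cells complemented with human TDP1, 400 cells/well, exposed to compounds plus 20 nM camptothecin for at least 48 h at 37 C; viability read as ATP content by CellTiter-Glo luminescence.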
With `COc1ccc(CN(C)C(=O)c2ccccc2Sc2ccccc2C#N)c(OC)c1` the Potency was active: 23.1 µM. With `Cc1ccc(C(C)NC(=S)NCc2ccc(F)cc2)cc1C` (centres undefined) the Potency was inconclusive: 25.9 µM [inhibitor, single point]. In the case of `CC(=O)c1cccc(N2Cc3ccccc3C2=NC(=O)CCl)c1`, the Potency is reported as inconclusive: 16.4 µM [inhibitor, single point]. In the case of `O=C(O)CSc1nnc(COc2ccccc2)n1-c1ccccc1`, the Potency is reported as “inactive”. In the case of `N#Cc1nc(-c2ccc(OCc3ccccc3)cc2)oc1NCCCn1ccnc1`, the Potency is reported as inconclusive: 29.1 µM [inhibitor, single point]. In the case of `O=C(CN1C(=O)COc2ccc(S(=O)(=O)N3CCCCCC3)cc21)Nc1cccc(Cl)c1`, the Potency is reported as inconclusive: 23.1 µM [inhibitor, single point]. For `FC(F)(F)c1cc(-c2cccs2)nc2nc(N3CCOCC3)sc12`, the Potency was inconclusive: 20.6 µM [inhibitor, single point]. With `Cc1ccc(C)c(Cc2c(C)nc3c(C(=O)N4CCOCC4)cnn3c2C)c1` the Potency was active: 15.8 µM. In the case of `Cc1ccc(S(=O)(=O)N(C)CC(O)Cn2c3ccccc3c3ccccc32)cc1` (centres undefined), the Potency is reported as inconclusive: 25.9 µM [inhibitor, single point]. In the case of `CC1Cc2cc(-c3csc(NC(=O)Cc4cccs4)n3)ccc2N1S(C)(=O)=O` (centres undefined), the Potency is reported as inconclusive: 25.9 µM [inhibitor, partial curve, poor fit]. In the case of `CCOc1ccc2nc3cc(N)ccc3c(N)c2c1`, the Potency is reported as “inactive and inconclusive: 23.1 µM [inhibitor, partial curve, poor fit]”. For `CC1CCN(c2nn3c(=O)c(C(=O)NCCc4ccccc4)cnc3s2)CC1`, the Potency was active: 9.2 µM. With `Cc1ccc(S(=O)(=O)N2CCCC2C(=O)NC2CCCCC2)cc1` (centres undefined) the Potency was inconclusive: 18.4 µM [inhibitor, single point]. In the case of `COc1cc(C)ccc1OCCOCCOc1ccccc1[N+](=O)[O-]`, the Potency is reported as inconclusive: 18.4 µM [inhibitor, single point]. For `Cc1c(-c2ccccc2)sc(N)c1C(=O)N1CCOCC1`, the Potency was “inactive”. For `O=S1(=O)N=C(N(Cc2cccs2)c2ccc(O)cc2)c2ccccc21`, the Potency was inconclusive: 29.1 µM [inhibitor, single point]. In the case of `O=C(C[n+]1ccccc1)N/N=C/c1c(F)cccc1Cl`, the Potency is reported as inconclusive: 29.1 µM [inhibitor, single point]. With `COc1ccc(C(C(=O)NC2CCCC2)N(Cc2ccccc2)C(=O)CNC(=O)c2ccco2)cc1` (centres undefined) the activity change, negative = growth inhibition was inconclusive: -31.1% [inhibitor]. With `CCN(C[C@H]1N[C@@](CC)(C(=O)OC)[C@H]2C(=O)N(C)C(=O)[C@@H]12)C(=O)Nc1ccc(F)cc1` the Potency was “inactive”. In the case of `Cc1ccc2nc(-c3ccccc3)c(Cc3ccccn3)n2c1`, the Potency is reported as inconclusive: 29.1 µM [inhibitor, single point]. In the case of `CC(=O)N1CCc2c(sc3nc(SCC(C)C)n(-c4ccc(C)c(Cl)c4)c(=O)c23)C1`, the Potency is reported as active: 23.1 µM. In the case of `CN(C)CCNc1ncnc2c1ncn2[C@H]1CN(Cc2ccncc2)C[C@@H](CO)O1`, the Potency is reported as “inactive”. For `CCOc1ccc(CCNC(=O)CS(=O)Cc2nc(-c3ccc(OC)c(OC)c3)oc2C)cc1OCC` (centres undefined), the Potency was inconclusive: 29.1 µM [inhibitor, single point]. For `COC(=O)c1ccc(C2c3[nH]c4ccccc4c3C[C@H]3C(=O)N(C4CCN(Cc5ccccc5)CC4)CC(=O)N23)cc1` (some centres undefined), the Potency was inconclusive: 23.1 µM [inhibitor, single point]. In the case of `Cc1ccc(Cl)c(OCC(=O)N(C)CC(=O)Nc2ccc(N3CCOCC3)cc2)c1`, the Potency is reported as inconclusive: 29.1 µM [inhibitor, single point]. For `CC(C)[C@H](NC(=O)NC1CCN(Cc2ccccc2)CC1)C(=O)O`, the Potency was “inactive”. With `O=C(COc1ccc(Cl)cc1)N1CCN(Cc2ccc3c(c2)OCO3)CC1` the Potency was inconclusive: 33.5 µM [inhibitor, single point]. In the case of `CCc1nn2c(=O)cc(COC(=O)c3ccc(NC(=O)CCc4ccccc4)cc3)nc2s1`, the Potency is reported as active: 23.1 µM. With `CC(=O)N1CCc2cc(S(=O)(=O)NCCC(=O)N3CCN(Cc4ccccc4)CC3)ccc21` the Potency was inconclusive: 13 µM [inhibitor, partial curve]. With `CC(=O)CC[N+](C)(C)C` the Potency was active: 13 µM. For `COC(=O)[C@H]1C[C@@]2(O)CN(S(=O)(=O)c3ccc(C)cc3)C[C@@]2(OC(=O)NC2CC2)C[C@H]1C(=O)OC`, the Potency was “inactive”. With `CC(C)(C)C(=O)[C@@H]1[C@@H]2C(=O)N(C3CCCCC3)C(=O)[C@@H]2[C@H]2c3ccccc3C=CN12` the Potency was active: 23.1 µM. For `CCc1ccc(OCC(O)Cn2c(N3CCCCC3)nc3c2c(=O)[nH]c(=O)n3C)cc1` (centres undefined), the Potency was inconclusive: 20.6 µM [inhibitor, single point]. For `COc1ccc(C(=O)c2sc(Nc3ccccc3)nc2C)cc1`, the Potency was inconclusive: 20.6 µM [inhibitor, single point]. With `CC1(C(=O)NS(=O)(=O)c2ccccc2)CCN1C(=O)c1ccccc1CCc1ccccc1` (centres undefined) the Potency was “inactive”. In the case of `O=C(Nc1cccnc1)c1ccccc1Oc1ccccc1`, the Potency is reported as “inactive”. In the case of `Nc1ccc(NC(=O)c2cccc(C(=O)Nc3ccc(N)cc3Cl)c2)c(Cl)c1`, the Potency is reported as active: 18.4 µM. For `N#Cc1c(N)sc(=S)c2c1CCCCC2`, the Potency was inconclusive: 20.6 µM [inhibitor, partial curve, poor fit]. With `Cc1nn2c(NCC(C)C)c3c(nc2c1-c1ccccc1)CCC3` the Potency was “inactive”. In the case of `CCC1Oc2ccccc2N(CC(=O)Nc2ccc(OC)cc2OC)C1=O` (centres undefined), the Potency is reported as inconclusive: 29.1 µM [inhibitor, single point]. With `Cc1nn(C(C)C(=O)Nc2ccc(C(C)C)cc2)c(=O)c2c1sc1ccccc12` (centres undefined) the Potency was inconclusive: 20.6 µM [inhibitor, single point]. In the case of `CC1(C)CSC(=S)N1S(=O)(=O)c1ccccc1`, the Potency is reported as “inactive”. For `COc1cc(N2CCCC2)c(OC)cc1/C=C(/C#N)c1ccc(Br)cc1`, the Potency was inconclusive: 10.3 µM [inhibitor, partial curve]. In the case of `CCC(C)(C)NC(=O)CSc1nc(Cc2ccccc2)nc2ccccc12`, the Potency is reported as inconclusive: 4.11 µM [inhibitor, partial curve].
% is scaled to controls: 0 for no effect and ±100 for the full control effect; potency is read from the fitted curve at half-maximal effect; tags tell the direction and shape of the fitted curve.
